# Source: PubChem BioAssay (NCATS)
# “And” between values parts separate entries of the source, which are not always exact repeats. Equal entries are not always repeated. The shares of active, inactive and inconclusive entries below differ from those in the screen. For some assays here: A potency beside an inconclusive call is a rough fit, not a confirmed value. Where a structure was tested more than once in an assay, its records may differ in their call. The source made the active and inactive calls. Calls follow the shape of the dose curve; as a rule, active = well fitted curve in the direction sought with a large enough effect; inconclusive = small, poorly fitted or top-dose-only effect, or another doubt; inactive = no such curve, though single readings can be large; an effect the other way counts as inactive or inconclusive. *1 amine or outer side, *2 acyl side, *3 side chain or, on linkers, in order; H or OH if unused. Where a SMILES comes first, the peptide text is derived from it. Bridges are numbered along the chain shown (N, C = ends). Roman numbers before positions name the chains, in order. [ ]: non-standard residue; d: D form. Actinocin(9to1) = Cc1c2oc3c(C)ccc(C(=O)[*:1])c3nc-2c(C(=O)[*:2])c(N)c1=O; NMeV = CN[C@H](C(=O)O)C(C)C; Sar = CNCC(=O)O
# What was measured:
# [1] = test system: KB-3-1; assay: Cytotoxic Profiling of Annotated Libraries Using Quantitative High-Throughput Screening (AID 1296008); settings: Five cell lines viability, CellTiter-Glo ATP luminescence, 48-72 h; max response: active compounds read low; also: nearly all actives have a fitted effect of over 60% in size; as to max response: % is scaled to controls: 0 for no effect and ±100 for the full control effect
# Procedure, shortened: (§1)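 Cytotoxicity was measured as CellTiter-Glo ATP luminescence, read after 10 min at room temperature. Compound treatment of the cells lasted 48 or 72 hr at 37 degrees Celsius in a qHTS format.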
# [2] = test system: MCC-26; assay: qHTS assay to identify novel small-molecules to repurpose for Merkel cell carcinoma treatment (AID 1296009); settings: MCC and control cell lines, CellTiter-Glo viability, 72 h; series mostly up to 46 µM; also: nearly all actives have a fitted effect of over 60% in size; as to activity change, negative = cytotoxicity: % is scaled to controls: 0 for no effect and ±100 for the full control effect
# Procedure, shortened: (§2)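 72 hr, 37 degree celsius; NPC 8-pt / MIPE 11-pt dose response; compound pinned in DMSO; CellTiter-Glo, 10 min RT, luminescence; normalized to no-cell and DMSO controls.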
# [3] = test system: MKL-1; assay: as above; settings: MCC and control cell lines, CellTiter-Glo viability, 72 h; series mostly up to 46 µM
# Procedure, shortened: as §2
# [4] = test system: WaGa; assay: as above; settings: MCC and control cell lines, CellTiter-Glo viability, 72 h; series mostly up to 46 µM
# Procedure, shortened: as §2
# [5] = test system: astro; assay: Drug repurposing screens with cells derived from glioblastoma tumor samples (AID 1345199); settings: viability, ATP luminescence, 48 h; activity, negative = cell killing: at 45.9 µM (top of the series); also: nearly all actives have a fitted effect of over 40% in size
# Procedure, shortened: (§3)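 Four patient lines of CD133+ GBM neurospheres were screened at several concentrations; hits were retested in those lines plus three slower-growing GBM lines, using 48-hour treatment and ATP-based viability.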
# [6] = test system: C33A; assay: Primary qHTS to identify gynecologic anti-cancer compounds using libraries of approved drugs and bioactive compounds (AID 1345084); settings: Gynecologic cancer cell panel viability, ATPlite luminescence, 48 h; series mostly up to 57.5 µM; also: nearly all actives have a fitted effect of over 55% in size; as to activity change, negative = cytotoxicity: % is scaled to controls: 0 for no effect and ±100 for the full control effect
# Procedure, shortened: (§4)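 Cells, 1,000 per well, plated 16 h, then exposed 48 h at 37 C to compounds. Viability by ATPlite luminescence after 15 min at room temperature.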
# [7] = test system: CAOV3; assay: as above; settings: Gynecologic cancer cell panel viability, ATPlite luminescence, 48 h; series mostly up to 57.5 µM
# Procedure, shortened: as §4
# [8] = test system: CASKI; assay: as above; settings: Gynecologic cancer cell panel viability, ATPlite luminescence, 48 h; activity change, negative = cytotoxicity: at 57.5 µM (top of the series)
# Procedure, shortened: as §4
# [9] = test system: Es-2; assay: as above; settings: Gynecologic cancer cell panel viability, ATPlite luminescence, 48 h; series mostly up to 57.5 µM
# Procedure, shortened: as §4
# [10] = test system: HeLa; assay: as above; settings: Gynecologic cancer cell panel viability, ATPlite luminescence, 48 h; series mostly up to 57.5 µM
# Procedure, shortened: as §4
# [11] = test system: HaCat; assay: Cytotoxic Profiling of Annotated Libraries Using Quantitative High-Throughput Screening (AID 1296008); settings: Five cell lines viability, CellTiter-Glo ATP luminescence, 48-72 h; max response: active compounds read low; also: nearly all actives have a fitted effect of over 60% in size
# Procedure, shortened: as §1
# [12] = test system: UISO; assay: qHTS assay to identify novel small-molecules to repurpose for Merkel cell carcinoma treatment (AID 1296009); settings: MCC and control cell lines, CellTiter-Glo viability, 72 h; series mostly up to 46 µM; also: nearly all actives have a fitted effect of over 60% in size; as to activity change, negative = cytotoxicity: % is scaled to controls: 0 for no effect and ±100 for the full control effect
# Procedure, shortened: as §2
# [13] = test system: MCC-13; assay: as above; settings: MCC and control cell lines, CellTiter-Glo viability, 72 h; series mostly up to 46 µM
# Procedure, shortened: as §2
# [14] = test system: MKL-2; assay: as above; settings: MCC and control cell lines, CellTiter-Glo viability, 72 h; series mostly up to 46 µM
# Procedure, shortened: as §2
# [15] = Drug repurposing screens with cells derived from glioblastoma tumor samples (AID 1345199); settings: GBM patient neurospheres viability, ATP luminescence, 48 h; Potency: tumour line A unless noted; activity, negative = cell killing: at 46 µM (top of the series), tumour line A unless noted; also: nearly all actives have a fitted effect of over 40% in size
# Procedure, shortened: as §3
# [16] = test system: W2; assay: qHTS profiling for inhibitors of Plasmodium falciparum proliferation (AID 504749); also: nearly all actives have a fitted effect of over 60% in size; settings: P. falciparum in erythrocytes, SYBR Green DNA, 72 h; series mostly up to 28.7 µM
# Procedure, shortened: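 Infected RBCs, 0.3% parasitemia/2.5% Hct final; cpd 72 h, 37 C, 5% CO2; lysis buffer with saponin/triton/SYBR Green I, o/n RT dark; FI 485/535; norm. to artemisinin (0.29 uM) and DMSO.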
# [17] = qHTS assay to identify inhibitors of the type 1 interferon - major histocompatibility complex class I in skeletal muscle: Counter screen cell viability and HiBit confirmation (AID 1347412); settings: iHSKM muscle cells + IFN-b, HiBiT or CellTiter-Glo, 24 h; also: nearly all actives have a fitted effect of over 60% in size
# Procedure, shortened: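 Human myoblast knock-in line, 4.0 ng/ml IFN-beta stimulation, 24 h compound treatment. Endpoints: HiBiT lytic luminescence (HLA-B level) and CellTiter Glo (ATP). Dosing 12 concentrations, 3-fold steps, 46 uM highest final.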
# Potency is read from the fitted curve at half-maximal effect; tags tell the direction and shape of the fitted curve.
smiles,measurement,setting,value
"Cc1c2oc3c(C)ccc(C(=O)N[C@@H]4C(=O)N[C@H](C(C)C)C(=O)N5CCC[C@H]5C(=O)N(C)CC(=O)N(C)[C@@H](C(C)C)C(=O)O[C@@H]4C)c3nc-2c(C(=O)N[C@@H]2C(=O)N[C@H](C(C)C)C(=O)N3CCC[C@H]3C(=O)N(C)CC(=O)N(C)[C@@H](C(C)C)C(=O)O[C@@H]2C)c(N)c1=O (I: T[dV]P[Sar][NMeV] / II: T[dV]P[Sar][NMeV]; ester I:1-I:C, II:1-II:C; linker I:N-II:N via Actinocin(9to1))",Potency,[1],active: 0.0206 µM
same,Potency,[2],active: 0.0211 µM
same,Potency,[3],"inconclusive: 0.0047 µM [inhibitor, full curve, poor fit]"
same,Potency,[4],inconclusive: 0.0008 µM [inhibitor]
same,Potency,[5],"inconclusive: 2.51 µM [inhibitor, full curve, poor fit]"
same,Potency,[6],inconclusive: 1 µM
same,Potency,[7],"inconclusive: 0.631 µM [cytotoxic, full curve, poor fit]"
same,"activity change, negative = cytotoxicity",[8],inconclusive: -82.1%
same,Potency,[9],inconclusive: 0.316 µM
same,Potency,[10],inconclusive: 0.0398 µM
C[C@]12C=CC(=O)N[C@@H]1CC[C@H]1[C@H]3CC[C@@H](C(=O)Nc4cc(C(F)(F)F)ccc4C(F)(F)F)[C@@]3(C)CC[C@@H]12,outcome,[11],inactive
same,Potency,[12],inactive
COc1cc2ncnc(Nc3cccc(Br)c3)c2cc1OC,Potency,[11],"inconclusive: 37.2 µM [inhibitor, single point]"
same,Potency,[13],"inconclusive: 29.6 µM [inhibitor, single point]"
same,Potency,[14],"inconclusive: 10.5 µM [inhibitor, partial curve, poor fit]"
same,Potency,[12],"inconclusive: 26.4 µM [inhibitor, single point]"
C#C[C@]1(O)CC[C@@H]2[C@@H]3CCC4=CC(=O)CC[C@@H]4[C@H]3CC[C@@]21CC,max response,[1],inactive: -5.98%
same,Potency,[12],inactive
Cc1cc(/C=C/c2ccc3cc(N(C)C)ccc3[n+]2C)c(C)n1-c1ccccc1,Potency,[1],"inconclusive: 9.88 µM [inhibitor, single point]"
COc1cc(OC)cc(OC)c1,max response,[1],inactive: -2.29%
same,Potency,[15],inactive
Cc1c(C)c2c(c(C)c1O)CCC(C)(COc1ccc(CC3SC(=O)NC3=O)cc1)O2 (configuration not stated),max response,[1],inactive: -2.71% and inactive: -9.42%
same,Potency,[14],"inconclusive: 18.8 µM [inhibitor, single point]"
same,Potency,[12],"inconclusive: 33.5 µM [inhibitor, single point] and inconclusive: 16.6 µM [inhibitor, partial curve]"
same,Potency,[4],active: 16.8 µM
same,Potency,[5],active: 10 µM
same,Potency,[7],inactive
same,Potency,[8],inactive
O=C(CCNNC(=O)c1ccncc1)NCc1ccccc1,Potency,[16],"inconclusive: 0.0034 µM [inhibitor, partial curve, poor fit]"
same,max response,[11],inactive: -22%
same,Potency,[4],"inconclusive: 18.8 µM [inhibitor, partial curve, poor fit]"
same,Potency,[15],inactive
CCOc1ccc(NC(C)=O)cc1,max response,[1],inactive: 8.88%
O=C1OC2(c3ccc(O)cc3Oc3cc(O)ccc32)c2ccccc21,Potency,[1],"inconclusive: 10.3 µM [inhibitor, partial curve, poor fit]"
same,Potency,[6],inactive
C[C@H](O)C(=O)Nc1c(I)c(C(=O)NC(CO)CO)c(I)c(C(=O)NC(CO)CO)c1I,max response,[1],inactive: 3.55%
same,Potency,[3],inactive
same,Potency,[12],inactive
c1cc(CN2CCCNCCNCCCNCC2)ccc1CN1CCCNCCNCCCNCC1,max response,[11],inactive: -12.9%
same,Potency,[12],inactive
Nc1ncn([C@@H]2O[C@H](CO)[C@@H](O)[C@H]2O)c(=O)n1,Potency,[1],"inconclusive: 29.1 µM [inhibitor, single point]"
same,Potency,[13],"inconclusive: 4.22 µM [inhibitor, partial curve]"
same,Potency,[2],"inconclusive: 33.5 µM [inhibitor, partial curve, poor fit]"
same,Potency,[3],"inconclusive: 15 µM [inhibitor, partial curve]"
same,Potency,[14],"inconclusive: 9.44 µM [inhibitor, partial curve]"
same,Potency,[12],active: 9.44 µM
same,Potency,[4],active: 16.8 µM
same,Potency,[5],"inconclusive: 5.62 µM [inhibitor, full curve]"
same,Potency,[17]; HiBiT,active: 14 µM
same,Potency,[17]; Viability,"inconclusive: 7.01 µM [cytotoxic, full curve]"
same,Potency,[6],"inconclusive: 10 µM [cytotoxic, partial curve]"
same,Potency,[7],"inconclusive: 3.55 µM [cytotoxic, full curve]"
same,Potency,[8],"inconclusive: 2.82 µM [cytotoxic, full curve, poor fit]"
same,Potency,[9],active: 3.98 µM
same,Potency,[10],"inconclusive: 4.47 µM [cytotoxic, full curve]"
COc1ccc2cc([S+]([O-])Cc3ncc(C)c(OC)c3C)nc2c1,outcome,[1],inactive
same,Potency,[14],"inconclusive: 26.4 µM [inhibitor, single point]"
same,Potency,[12],"inconclusive: 4.18 µM [inhibitor, full curve]"
CCCc1ncc(C[n+]2ccccc2C)c(N)n1,Potency,[16],inactive
same,Potency,[11],"inconclusive: 0.944 µM [inhibitor, full curve, poor fit]"
same,Potency,[12],inactive
CCCCC(=O)OCC(=O)[C@]1(O)Cc2c(O)c3c(c(O)c2[C@@H](O[C@H]2C[C@H](NC(=O)C(F)(F)F)[C@H](O)[C@H](C)O2)C1)C(=O)c1c(OC)cccc1C3=O,Potency,[1],active: 8.2 µM
